Data taken from PubChem BioAssay AID686979 (National Center for Advancing Translational Sciences (NCATS), 2013).
Where “and” joins values, the source holds several entries; their conditions need not be identical. Identical values can stand only once. Out of some 420,000 compounds screened, about 50,000 (12%) were called active. Inconclusive means that the source gave no clear call. Such entries were picked first, then a sample of the others. Calls follow the shape of the dose curve; as a rule, active = well fitted inhibition curve with a large enough effect; inconclusive = small, poorly fitted or top-dose-only effect; inactive = flat fitted curve, though single readings scatter. Where the call is inconclusive, the potency comes from a doubtful curve fit.

Test: qHTS for Inhibitors of human tyrosyl-DNA phosphodiesterase 1 (TDP1): qHTS in cells in presence of CPT; also: nearly all actives have a fitted effect of over 55% in size
Settings: chicken DT40 Tdp1-/-;hTDP1 cells + 20 nM CPT, ATP luminescence, 48 h; activity change, negative = growth inhibition: at 46.2 µM (top of the series) unless noted
How it was run: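 Chicken DT40 Tdp1-/- cells stably complemented with human TDP1 were seeded at 400 cells/well in medium containing 20 nM camptothecin, exposed to pin-transferred compounds, and grown at 37 °C for at least 48 hr. Viability was read as ATP luminescence.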
% is scaled to controls: 0 for no effect and ±100 for the full control effect; potency is read from the fitted curve at half-maximal effect; tags tell the direction and shape of the fitted curve.

**Q.** For `CCOc1ccc(C(=O)Nc2cc(-c3nc4ccccc4[nH]3)ccc2C)cc1[N+](=O)[O-]`, which Potency is on record?
**A.** The Potency was inconclusive: 16.4 µM [inhibitor, single point].

**Q.** With `O=C(CNS(=O)(=O)c1ccc(Br)s1)N1CCN(c2ccc(F)cc2)CC1` as the compound, how does the Potency read?
**A.** Its Potency is inconclusive: 18.4 µM [inhibitor, single point] and inconclusive: 32.6 µM [inhibitor, single point].

**Q.** For `Cc1sc2ncnc(N/N=C/c3ccc(O)cc3)c2c1C`, which Potency is on record?
**A.** Its Potency is inconclusive: 23.1 µM [inhibitor, single point].

**Q.** With `COc1cccc(C(=O)/C=C/Nc2cccc(O)c2)c1` as the compound, how does the Potency read?
**A.** Its Potency is inconclusive: 13 µM [inhibitor, partial curve].

**Q.** Which Potency does the source give for `C[C@]12CCC(=O)C=C1CC[C@@H]1[C@@H]2CC[C@@]2(C)[C@H]1CC[C@]2(O)C(=O)CO` here?
**A.** Its Potency is inconclusive: 21.1 µM [inhibitor, single point].

**Q.** Which Potency does the source give for `CCS(=O)(=O)NCCc1sc2nc(-c3ccc(OC)cc3)nn2c1C` here?
**A.** The Potency was inconclusive: 29.1 µM [inhibitor, single point].

**Q.** For `Cc1ccc(N(C)C(=O)N2CCN(S(=O)(=O)c3ccc(C)c(C)c3)CC2)cc1`, which Potency is on record?
**A.** The Potency was inconclusive: 35.5 µM [inhibitor, single point].

**Q.** Which Potency does the source give for `CCOC(=O)[C@]12CCCC=C1N(Cc1ccco1)C(=O)[C@H](CC(=O)N1CCSCC1)C2` here?
**A.** Its Potency is inconclusive: 25.9 µM [inhibitor, partial curve].

**Q.** For `CCN(CC)S(=O)(=O)c1cccc(-c2nnc(SCC(=O)c3ccc(Cl)s3)n2C)c1`, which Potency is on record?
**A.** The Potency was inconclusive: 11.6 µM [inhibitor, single point].

**Q.** For `CCCCN(C)C(=O)C1CCCN(S(=O)(=O)c2ccc3c(c2)CC(C)N3C(=O)C2CC2)C1` (stereo unspecified), which Potency is on record?
**A.** Its Potency is inconclusive: 20.6 µM [inhibitor, partial curve, poor fit].

**Q.** Which Potency does the source give for `COc1ccc(S(=O)(=O)Nc2ccccc2C(=O)NCc2ccco2)cc1` here?
**A.** The Potency was active: 20.6 µM.

**Q.** With `O=C(Nc1cccc(S(=O)(=O)NC2=NCCCCC2)c1)c1cc(-c2ccccc2Cl)nc2ccccc12` as the compound, how does the Potency read?
**A.** The Potency was inconclusive: 18.4 µM [inhibitor, single point].

**Q.** For `O=C(c1cc(-c2cccs2)nc2ccccc12)N1CCN(c2ccccc2O)CC1`, which Potency is on record?
**A.** Its Potency is inconclusive: 29.1 µM [inhibitor, single point].

**Q.** Which Potency does the source give for `Cc1ccc(-c2nc3ccccc3s2)cc1NC(=S)NC(=O)/C=C/c1ccco1` here?
**A.** The Potency was inconclusive: 16.4 µM [inhibitor, partial curve, poor fit].

**Q.** For `NS(=O)(=O)c1ccc(NC(=O)COC(=O)Cc2ccc(Cl)cc2)cc1`, which Potency is on record?
**A.** The Potency was “inactive”.

**Q.** With `CC(C)c1ccc(NNC(=O)C2CCC2)cc1` as the compound, how does the Potency read?
**A.** The Potency was active: 9.2 µM.

**Q.** For `Cc1ccc(C(=O)N2CCN(Cc3ccc4c(c3)OCO4)CC2)cc1S(=O)(=O)N1CCOCC1`, which Potency is on record?
**A.** Its Potency is inconclusive: 29.1 µM [inhibitor, single point].

**Q.** For `CC(/C=N\NC(=O)c1cccnc1)c1ccccc1` (stereo unspecified), which Potency is on record?
**A.** Its Potency is “inactive”.

**Q.** With `Cc1cccn2c(=O)cc(COc3ccc(NC(=O)COc4ccc(F)cc4)cc3)nc12` as the compound, how does the Potency read?
**A.** Its Potency is inconclusive: 7.31 µM [inhibitor, partial curve, poor fit].

**Q.** Which Potency does the source give for `Cc1ccc(S(=O)(=O)NCc2ccccc2)cc1` here?
**A.** Its Potency is “inactive and inconclusive: 33.5 µM [inhibitor, single point]”.

**Q.** Which Potency does the source give for `CC(C)c1ccc(C2(C)NC(=O)N(CC(=O)NC3(C#N)CCCC3)C2=O)cc1` (stereo unspecified) here?
**A.** Its Potency is inconclusive: 29.1 µM [inhibitor, single point].

**Q.** For `COc1ccc2[nH]c(=O)c(CN(Cc3nnnn3Cc3ccc(F)cc3)CC3CCCO3)cc2c1` (stereo unspecified), which Potency is on record?
**A.** Its Potency is inconclusive: 18.4 µM [inhibitor, single point].

**Q.** For `CCn1c(C(=O)N2CCC(C(=O)NCc3ccc4c(c3)OCO4)CC2)cc2sccc21`, which Potency is on record?
**A.** Its Potency is active: 23.1 µM.

**Q.** For `COCCNC(=O)c1ccc2c3n(nc2c1)-c1ccc(Cl)cc1CO3`, which Potency is on record?
**A.** The Potency was inconclusive: 20.6 µM [inhibitor, single point].

**Q.** Which Potency does the source give for `CCOc1ccccc1NC(=O)N1CC(C)Oc2ccc(Cl)cc21` (stereo unspecified) here?
**A.** Its Potency is inconclusive: 14.6 µM [inhibitor, single point].

**Q.** Which Potency does the source give for `CCOC(=O)c1cnc(NCc2ccc(OC)cc2OC)c2ccccc12` here?
**A.** Its Potency is inconclusive: 20.6 µM [inhibitor, partial curve].

**Q.** With `COc1ccc(C(=O)NC2CC2)cc1OC1CCN(Cc2ccc(F)cc2F)CC1` as the compound, how does the Potency read?
**A.** The Potency was “inactive”.

**Q.** With `COC(=O)c1ccc2c(c1)c(C#Cc1ccccc1)c(-c1ccccc1)n2C` as the compound, how does the Potency read?
**A.** Its Potency is active: 20.6 µM.

**Q.** With `O=C(CCCCn1c(=O)[nH]c2ccccc2c1=O)NCCc1c[nH]c2ccccc12` as the compound, how does the Potency read?
**A.** The Potency was “inactive”.

**Q.** For `NC(=O)c1cc(N)ccc1N1CCCC1`, which Potency is on record?
**A.** Its Potency is inconclusive: 35.5 µM [inhibitor, single point].

**Q.** With `CCOc1ccc(-c2nnc(SCC(=O)Nc3ccc4c(c3)c3ccccc3n4CC)n2N)cc1` as the compound, how does the Potency read?
**A.** The Potency was inconclusive: 29.1 µM [inhibitor, single point].

**Q.** With `COc1cccc(OC)c1CN1CCC2(CCC(CNC(=O)c3ccn(C)n3)O2)CC1` (stereo unspecified) as the compound, how does the Potency read?
**A.** Its Potency is inconclusive: 29.1 µM [inhibitor, single point].

**Q.** With `Cc1cccc2cc(CN(CCCO)C(=O)Nc3ccccc3Cl)c(=O)[nH]c12` as the compound, how does the activity change, negative = growth inhibition read?
**A.** Its activity change, negative = growth inhibition is inconclusive: -31.1% [inhibitor].

**Q.** For `COc1ccccc1N1CCc2c(C)nc3c(OC)cccc3c21`, which Potency is on record?
**A.** Its Potency is active: 5.8 µM.

**Q.** With `COc1ccc(-c2nc3sc(CCNC(=O)C(C)(C)C)c(C)n3n2)cc1` as the compound, how does the Potency read?
**A.** Its Potency is active: 29.1 µM.

**Q.** For `COc1ccc(NC(=O)Cn2ncn3c(cc4ccccc43)c2=O)c(OC)c1OC`, which Potency is on record?
**A.** Its Potency is “inactive”.

**Q.** Which Potency does the source give for `CCN(CC)CCCNC1=C(Cl)C(=O)c2ccccc2C1=O` here?
**A.** The Potency was active: 3.26 µM.

**Q.** For `CN1CCN(Cc2c(C(=O)N3CCc4ccccc4C3)nc3ccc(Cl)cn23)CC1`, which Potency is on record?
**A.** Its Potency is “inactive”.

**Q.** Which Potency does the source give for `O=C(CCCCCN1C(=O)c2cccc3cccc(c23)C1=O)NC1CCS(=O)(=O)C1` (stereo unspecified) here?
**A.** The Potency was “inactive”.

**Q.** With `O=C(O)CCc1ccc(-c2ccc(Br)cc2)n1-c1ccccc1O` as the compound, how does the Potency read?
**A.** The Potency was “inactive”.

**Q.** For `CCOc1ccc(NC(=O)N[C@@H](CCSC)C(=O)OC)cc1`, which Potency is on record?
**A.** The Potency was “inactive”.

**Q.** With `O=C(CCNC(=O)C1CCN(S(=O)(=O)c2ccccc2)CC1)NCc1ccc(Cl)c(Cl)c1` as the compound, how does the Potency read?
**A.** The Potency was inconclusive: 29.1 µM [inhibitor, single point].

**Q.** For `Cc1cccc(-c2ccc3c(c2)C2CC3CCN2)c1` (stereo unspecified), which Potency is on record?
**A.** Its Potency is active: 20.6 µM.

**Q.** For `COc1ccccc1N(CC(=O)Nc1ccc2c(c1)OCCO2)S(=O)(=O)c1ccc(C)cc1`, which Potency is on record?
**A.** The Potency was inconclusive: 13 µM [inhibitor, single point].

**Q.** Which Potency does the source give for `CC(C)Cc1nn2cc(-c3cccc(Br)c3)nc2s1` here?
**A.** Its Potency is inconclusive: 16.4 µM [inhibitor, partial curve].

**Q.** Which Potency does the source give for `Cc1c(OCC(=O)NCC(O)c2ccccc2)ccc2c3c(c(=O)oc12)CCC3` (stereo unspecified) here?
**A.** The Potency was inconclusive: 23.1 µM [inhibitor, single point].

**Q.** For `CCc1ccc(NC(=O)COc2ccc(F)cc2C(=O)c2cnn(-c3ccccc3)c2)cc1`, which Potency is on record?
**A.** The Potency was inconclusive: 18.4 µM [inhibitor, single point].

**Q.** For `CCCCN(CC)CCNC(=O)Cn1cnc2sc(C)c(S(=O)(=O)N3CCN(c4ccccc4OC)CC3)c2c1=O`, which Potency is on record?
**A.** The Potency was inconclusive: 20.6 µM [inhibitor, single point].

**Q.** For `CCC/C(=C1/c2ccccc2C(=O)N1c1ccccc1)c1ccc2[nH]ccc2c1`, which Potency is on record?
**A.** The Potency was active: 16.4 µM.

**Q.** Which Potency does the source give for `COc1ccc(/C(=N\O)c2ncc(C(F)(F)F)cc2Cl)cc1` here?
**A.** Its Potency is inconclusive: 18.4 µM [inhibitor, partial curve].

**Q.** Which Potency does the source give for `O=C(NCCc1ccccc1)C1CCCN1C(=O)Nc1ccc(Cl)cc1` (stereo unspecified) here?
**A.** The Potency was active: 16.4 µM.

**Q.** For `CCOC(=O)c1ccc(NC(=O)c2nc[nH]c2C(=O)NCc2ccccc2)cc1`, which Potency is on record?
**A.** The Potency was inconclusive: 29.1 µM [inhibitor, single point].

**Q.** For `COC(=O)c1cc2c(=O)c3ccccc3oc2nc1/C=C/N(C)C`, which Potency is on record?
**A.** The Potency was “inactive”.

**Q.** With `O=C(NCC1CCCO1)c1cc(-c2ccccc2)nc2ccc(Br)cc12` (stereo unspecified) as the compound, how does the Potency read?
**A.** Its Potency is inconclusive: 23.1 µM [inhibitor, single point].

**Q.** With `COc1ccc(C(=O)CSc2nnc(CN3CCCCC3)n2-c2ccc(Cl)cc2)cc1OC` as the compound, how does the Potency read?
**A.** The Potency was inconclusive: 20.6 µM [inhibitor, single point].

**Q.** With `CCOc1cccc2sc(N(Cc3cccnc3)C(C)=O)nc12` as the compound, how does the Potency read?
**A.** The Potency was inconclusive: 29.1 µM [inhibitor, partial curve].

**Q.** For `CCOC(=O)[C@]12CCC=C1N(Cc1ccc(Cl)cc1Cl)C(=O)[C@H](CC(=O)NCC13CC4CC(CC(C4)C1)C3)C2`, which Potency is on record?
**A.** Its Potency is inconclusive: 29.1 µM [inhibitor, single point].

**Q.** Which Potency does the source give for `Cc1ccc(Cn2cc(-c3ccccc3)nn2)cc1` here?
**A.** Its Potency is inconclusive: 23.1 µM [inhibitor, single point].

**Q.** Which Potency does the source give for `Cc1cc2nc(-c3ccc(NC(=O)c4ccc(OCC(C)C)cc4)cc3)oc2cc1C` here?
**A.** The Potency was “inactive”.

**Q.** With `O=C(Nc1ccc(F)c(Cl)c1)c1cc(S(=O)(=O)NCc2ccc3c(c2)OCO3)ccc1F` as the compound, how does the Potency read?
**A.** Its Potency is inconclusive: 23.1 µM [inhibitor, single point].

**Q.** Which Potency does the source give for `O=CN1CCN(C(C(=O)NC2CCCCC2)c2ccc(Cl)cc2)CC1` (stereo unspecified) here?
**A.** The Potency was “inactive”.

**Q.** With `COc1ccc(-n2nc3c(N4CCC(C(=O)NCc5ccccc5)CC4)nnc(C)c3c2C)cc1` as the compound, how does the Potency read?
**A.** Its Potency is “inactive”.

**Q.** For `COC(=O)c1cccc(OCC(O)Cn2cnc3cc(C)c(C)cc32)c1` (stereo unspecified), which Potency is on record?
**A.** Its Potency is inconclusive: 29.1 µM [inhibitor, single point].

**Q.** Which Potency does the source give for `O=C(NCCc1ccccc1)c1ccc(CSc2nc3cccnc3n2Cc2ccccc2)cc1` here?
**A.** The Potency was inconclusive: 5.17 µM [inhibitor, single point].

**Q.** For `CC(NC(=O)CCc1cn(Cc2ccccc2Cl)c2ccccc12)c1ccccc1` (stereo unspecified), which Potency is on record?
**A.** The Potency was active: 20.6 µM.

**Q.** With `S=c1[nH]nc(-c2cc(-c3ccccc3)n[nH]2)n1/N=C/c1ccc(Cl)c(Cl)c1` as the compound, how does the Potency read?
**A.** The Potency was inconclusive: 29.1 µM [inhibitor, single point].
